Measurements as given in PubChem BioAssay AID1671194 (National Center for Advancing Translational Sciences (NCATS), 2021).
Among all 140,000 compounds or so, about 240 (0.17%) were called active. The inconclusive results got no clear call from the source; some entries with a clear call stand among them for comparison. The call rests on the fitted dose curve; in most records, active means well fitted inhibition curve with a large enough effect; inconclusive means small, poorly fitted or top-dose-only effect; inactive means no such curve, though single readings can be large or run the other way. Potencies of inconclusive entries are doubtful fits and often do not repeat.

Assay: Primary qHTS assay for inhibitors of alpha-synuclein gene (SNCA) expression; further: nearly all actives have a fitted effect of over 45% in size;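 on activity change, negative = inhibition: plate controls were DMSO cells for no effect and cell-free wells for full effect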
Settings: HEK-293 SNCA-luciferase knock-in, luminescence, 24 h; activity change, negative = inhibition: at 57.2 µM (top of the series) unless noted
Potency means the concentration at half of the fitted maximal effect; tags describe the fitted curve by direction and shape.

| Structure (SMILES) | Potency | activity change, negative = inhibition |
| --- | --- | --- |
| Cc1ccc(C2=CC(c3ccccc3C)n3c(nc4ccccc43)N2)cc1 (stereo unspecified) | inconclusive: 11.2 µM [inhibitor, partial curve, poor fit] | – |
| Cc1ccc(C)c(Nc2nnc(-c3ccc(C)c(S(=O)(=O)N4CCN(C)CC4)c3)c3ccccc23)c1 | inconclusive: 7.08 µM [inhibitor, single point] | – |
| CCN1c2cc(C(=O)Nc3ccc(Cl)cc3C)ccc2C(=O)N2CCCCCC21 (stereo unspecified) | inconclusive: 20 µM [inhibitor, single point] | – |
| Cc1oc(C2CCN(C(=O)C3CCCN(S(=O)(=O)N4CCCC4)C3)CC2)nc1C(=O)N1CCCC1 (stereo unspecified) | inconclusive: 11.2 µM [inhibitor, partial curve, poor fit] | – |
| O=[N+]([O-])c1cccc(-c2noc([C@@H]3Cc4nc[nH]c4CN3CC3CCCCC3)n2)c1 | inconclusive: 2.82 µM [inhibitor, partial curve, poor fit] | – |
| Fc1ccc(CNc2cc3c(cn2)CN(Cc2ccncc2)CCN3)cc1 | inconclusive: 3.16 µM [inhibitor, partial curve, poor fit] | – |
| Cc1ccn2c(Nc3ccccc3C)c(-c3ccc(N4CCOCC4)cc3)nc2c1 | inconclusive: 10 µM [inhibitor, partial curve] | – |
| CC(=O)N1CCN(C(=O)C2CCc3nnc(CNC(=O)NC(C)(C)C)n32)CC1 (stereo unspecified) | inconclusive: 2.82 µM [inhibitor, partial curve, poor fit] | – |
| CC(C)(Oc1nn(CCOc2ccccc2)c2ccccc12)C(=O)Nc1cccnc1 | inconclusive: 31.6 µM [inhibitor, partial curve, poor fit] | – |
| O=C(c1cccc(F)c1)N1CCOC[C@H](Oc2ccc(C(F)(F)F)cc2)C1 | inconclusive: 35.5 µM [inhibitor, partial curve, poor fit] | – |
| CCCSc1ncc(Cl)c(C(=O)Nc2ccc(S(=O)(=O)N3CCC(C)CC3)cc2)n1 | – | inactive: -2.74% |
| c1ccc(CNc2nc(-c3ccccc3)no2)cc1 | – | inactive: 108% |
| CCCN(CC1CCOC1)C(=O)NCC(C)C (stereo unspecified) | inconclusive: 10 µM [inhibitor, partial curve, poor fit] | – |
| CSCCNC(=O)C1CCN(c2nccc(Nc3ccccc3Cl)n2)CC1 | inconclusive: 6.31 µM [inhibitor, full curve, poor fit] | – |
| CCN(C(=O)CSc1nc2ccccc2n1Cc1ccc(C(=O)OC)cc1)c1ccccc1 | inconclusive: 7.08 µM [inhibitor, single point] | – |
| CCc1ccc(NC(=O)CN2CCN(C3CCCCC3)C(=O)C2=O)cc1 | inconclusive: 0.178 µM [inhibitor, partial curve, poor fit] | – |
| CCC(Sc1ncc(S(=O)(=O)c2ccc(C)cc2)c(=O)[nH]1)C(=O)Nc1cc(C)ccc1C (stereo unspecified) | inconclusive: 7.08 µM [inhibitor, single point] | – |
| Cc1csc(NC(=O)c2nc3c(o2)CCN(Cc2ccc(C#N)cc2)CC3)n1 | – | inactive: 7.23% [at 87.6 µM] |
| CC(C)c1cccc(NC(=O)c2ccc(CN3C(=O)NC4(CCOCC4)C3=O)cc2)c1 | – | inactive: -31.1% |
| COc1ccc(C2(C(=O)N(C)Cc3ccc(OC(F)(F)F)cc3)CCOCC2)cc1 | – | inactive: -2.85% |
| CC(C)c1cc(-c2n[nH]c(=O)n2-c2ccc3c(ccn3C)c2)c(O)cc1O | inconclusive: 0.341 µM [inhibitor, full curve] | – |

| Structure (SMILES) | Potency | activity change, negative = inhibition |
| --- | --- | --- |
| CN(C(=O)c1c[nH]c2ccc(S(=O)(=O)Nc3cccc(C(F)(F)F)c3)cc2c1=O)C1CCCCC1 | inconclusive: 25.1 µM [inhibitor, single point] | – |
| O=C(/C=C\c1ccc2c(c1)OCO2)NC1CC(=O)N(c2ccccc2)C1 (stereo unspecified) | inconclusive: 39.8 µM [inhibitor, single point] | – |
| CCN1CCc2c(sc(NC(=O)c3ccc(S(=O)(=O)N(C)C4CCCCC4)cc3)c2C(N)=O)C1 | inconclusive: 17.8 µM [inhibitor, single point] | – |
| COc1ccc(C(=O)N[C@H]2CC[C@]3(C)CCC([C@H](C)C(=O)NCc4ccccc4)[C@H](O)[C@H]3[C@@H]2C)cc1 (stereo partly specified) | inconclusive: 5.62 µM [inhibitor, full curve, poor fit] | – |
| CCCCc1ccc(Nc2cc(C)nc(-n3nc(C)cc3C)n2)cc1 | inconclusive: 11.2 µM [inhibitor, partial curve, poor fit] | – |
| c1ccc2c(c1)COC1(CCNC1)CN2CC1CCCC1 (stereo unspecified) | – | inactive: -17.2% [at 87.6 µM] |
| CN(C)c1ccc(-c2noc([C@@H]3CCCN3CC3CCCCC3)n2)cn1 | – | inactive: 39.7% [at 87.6 µM] |
| COc1ccccc1CN(Cc1ccccc1OC)[C@H]1C[C@@H](Cc2cc(CN3CCOCC3)on2)C1(C)C | – | inactive: -5.86% |
| CN1CCC(N[C@H]2C[C@@H](Cc3cc(-c4ccccc4)on3)C2(C)C)CC1 | inconclusive: 56.2 µM [inhibitor, single point] | – |
| Cc1ccccc1Cc1noc(-c2nc(-c3ccc4c(c3)OCO4)no2)n1 | inconclusive: 5.62 µM [inhibitor, single point] | – |
| COc1ccccc1Nc1ncc2c(n1)CN(C(=O)c1cccc(C#N)c1)CCN2 | inconclusive: 22.4 µM [inhibitor, partial curve, poor fit] | – |
| COc1cccc(C(=O)N2CCOc3ccc(CN4CCc5ccccc5C4)cc3C2)c1 | – | inactive: -18.2% |
| COc1ccc(C(=O)N[C@@H]2CN(Cc3cccc(OC)c3)CCC[C@H]2O)cc1 | – | inactive: -2.65% [at 87.6 µM] |
| CCCn1c(COc2cccc(C)c2)nc2ccccc21 | inconclusive: 2.82 µM [inhibitor, single point] | – |
| O=C(Nc1nccs1)[C@@H]1C[C@@H](c2cccc(C(F)(F)F)c2)N(CC2CCOCC2)C1 | inconclusive: 56.2 µM [inhibitor, single point] | – |
| COc1ccc(-c2ccc3ncc4c(c3c2)n(-c2ccc(N3CCNCC3)c(C(F)(F)F)c2)c(=O)n4C)cn1 | inconclusive: 21.5 µM [inhibitor, partial curve, poor fit] | – |
| CCC1=Nc2cc(C(=O)NCc3ccc(F)cc3)ccc2Sc2ccc(C)cc21 | inconclusive: 39.8 µM [inhibitor, single point] | – |
| COc1ccccc1-c1noc(-c2nnn3c2COC(c2ccc(F)cc2)C3)n1 (stereo unspecified) | – | inactive: -4.56% |
| CCc1ccc(CNC(=O)Cn2ccc3cc(S(=O)(=O)N4CCCCCC4)ccc32)cc1 | inconclusive: 2.82 µM [inhibitor, single point] | – |
| Cc1n[nH]c(C)c1CN1CCC2(CC1)CCN(C1CCOCC1)CC2CO (stereo unspecified) | – | inactive: -0.323% |
| CCc1ccc(NC(=O)Nc2cn(C)c(=O)c3ccccc23)cc1 | inconclusive: 39.8 µM [inhibitor, single point] | – |

| Structure (SMILES) | Potency | activity change, negative = inhibition |
| --- | --- | --- |
| COc1ccc(NC(=O)Cn2cnc3ccc(S(=O)(=O)N4CCC(C)CC4)cc3c2=O)c(OC)c1 | inconclusive: 22.4 µM [inhibitor, single point] | – |
| Cn1cccc1CN1CCC2(CC1)CNc1ccccc1[S+](=O)([O-])N2 | inconclusive: 3.16 µM [inhibitor, full curve] | – |
| COc1ccc(C(=O)NC2CCN(c3cc(-c4ccc(OC)cc4)[nH]n3)C2)cc1 (stereo unspecified) | – | inactive: -14.1% |
| Cc1noc(-c2cccc(OC3CN(C(=O)c4cnn(C)c4)C3)c2)n1 | – | inactive: 1.48% |
| Cc1cccc(C)c1-n1ncc(C(=O)NCCCN2CCCCC2)c1C1CCN(C(=O)OC(C)(C)C)CC1 | inconclusive: 3.98 µM [inhibitor, single point] | – |
| O=C(N[C@H]1[C@H](O)[C@H](O)C[C@@H]1c1ccc(C(F)(F)F)nc1)c1nc2ccccc2s1 | – | inactive: 30.9% [at 87.6 µM] |
| COc1cccc(-c2nc(S(=O)(=O)c3ccc(C)cc3)c(N3CCCCCC3)o2)c1 | inconclusive: 10 µM [inhibitor, partial curve, poor fit] | – |
| COc1ccccc1-c1cncnc1NCCc1cnc[nH]1 | inconclusive: 17.8 µM [inhibitor, partial curve, poor fit] | – |
| O=C(c1ccccc1F)N1CCC2(CC1)CCN(CCc1ccccc1)c1ccccc1O2 | – | inactive: 4.87% |
| O=C(N[C@H]1CCN2C(=O)c3cc(-c4ccccc4F)ccc3NC(=O)[C@@H]2C1)c1ccc(F)c(Cl)c1 | inconclusive: 22.4 µM [inhibitor, partial curve, poor fit] | – |
| CCOC(=O)c1ccc(N2C(=O)c3n[nH]c(-c4ccco4)c3C2c2ccc(OC)cc2OC)cc1 (stereo unspecified) | inconclusive: 15.8 µM [inhibitor, partial curve, poor fit] | – |
| COc1cc(OC)cc(C2NC(=O)NC(C)=C2C(=O)N2CCNC(=O)C2)c1 (stereo unspecified) | inconclusive: 17.8 µM [inhibitor, partial curve, poor fit] | – |
| O=C(Nc1nc2c(Cl)cccc2s1)c1ccc(S(=O)(=O)N2CCc3ccccc32)cc1 | inconclusive: 7.08 µM [inhibitor, single point] | – |
| COc1ccc(-c2cc(N3CCC(NC(=O)c4ccc(N(C)C)cc4)CC3)n[nH]2)cc1 | inconclusive: 8.91 µM [inhibitor, partial curve, poor fit] | – |
| O=C(C1CN(C2CCCC2)C(=O)N1)N1CCC(c2ccccc2)CC1 (stereo unspecified) | – | inactive: 7.72% |
| CCOC(=O)c1ccc(NC(=O)CN(Cc2ccc(C)cc2)S(=O)(=O)c2ccc(C)cc2)cc1 | inconclusive: 39.8 µM [inhibitor, single point] | – |
| O=C(C1CCN(C(=O)N2CC3CC(C2)[C@H]2CCCC(=O)N2C3)CC1)N1CCN(c2ccccc2)CC1 (stereo partly specified) | inconclusive: 39.8 µM [inhibitor, single point] | – |
| O=C(Nc1ccccc1)N1CCCC(c2nc(C3CCOCC3)no2)C1 (stereo unspecified) | inconclusive: 22.4 µM [inhibitor, partial curve, poor fit] | – |
| O=C(Nc1ccc(Br)cc1)c1ccc(F)c(S(=O)(=O)NC2CCCCCC2)c1 | inconclusive: 22.4 µM [inhibitor, single point] | – |
